Screen size: about 370,000 compounds; about 150 (0.041%) were called active. Inconclusive results, whose numbers are uncertain, are shown with a selection of clear calls. The call rests on the fitted dose curve; in most records, active means well fitted inhibition curve with a large enough effect; inconclusive means small, poorly fitted or top-dose-only effect; inactive means flat fitted curve, though single readings scatter. No potency is given beside an inconclusive call; the fits are too rough.
The compounds below were run against Beta-lactamase (Escherichia coli (strain K12)) (UniProt P00811) (assay: qHTS Inhibitors of AmpC Beta-Lactamase (assay with detergent)). Conditions: AmpC hydrolysis of nitrocefin, absorbance 480 nm, 0.01% Triton; series mostly up to 114 µM.
UniProt P00811, sequence (P00811 whole entry, looked up): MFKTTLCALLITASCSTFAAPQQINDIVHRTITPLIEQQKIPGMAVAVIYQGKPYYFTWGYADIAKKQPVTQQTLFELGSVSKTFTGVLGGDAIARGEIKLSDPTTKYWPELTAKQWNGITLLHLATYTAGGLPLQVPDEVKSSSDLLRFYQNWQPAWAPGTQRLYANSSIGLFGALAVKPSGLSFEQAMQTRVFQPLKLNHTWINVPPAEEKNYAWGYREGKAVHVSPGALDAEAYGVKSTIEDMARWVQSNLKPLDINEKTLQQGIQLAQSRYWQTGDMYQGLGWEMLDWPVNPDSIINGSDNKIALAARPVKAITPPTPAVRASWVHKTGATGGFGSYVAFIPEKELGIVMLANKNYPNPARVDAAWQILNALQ
Outline: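 20 mM phosphate pH 7.0 + 0.01% (detergent screen) or 0.0001% Triton X-100; 5.3 nM AmpC reagent; cpd preinc 15 min RT; nitrocefin (800 uM stock) to start; A480 q20 s × 4 min; Activity was normalised to no-enzyme and no-compound control wells.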
With O=C(NNS(=O)(=O)c1ccc(CCCl)cc1)C(O)(c1ccccc1)c1ccccc1 the Potency was inconclusive [inhibitor, single point]. CNCc1cc2ccc(C)cc2[nH]c1=O was tested, and the Potency was inconclusive [inhibitor, full curve, poor fit]. With O=C(CSc1cn(CCNC(=O)c2cccc(C(F)(F)F)c2)c2ccccc12)Nc1ccc2c(c1)OCCO2 the Potency was “inactive”. In the case of CC1CC(C)CN(CC(=O)N2c3ccccc3CCc3ccccc32)C1 (stereo unspecified), the Potency is reported as inconclusive [inhibitor, partial curve, poor fit]. For Cc1cc([N+](=O)[O-])ccc1NC(=O)CSc1nccc(=O)[nH]1, the Potency was inconclusive [inhibitor, single point]. CCOC(=O)CCNC(=O)N1CCCC(N(C)CCc2ccccc2)C1 (stereo unspecified) was tested, and the Potency was inconclusive [inhibitor, full curve, poor fit]. For COc1cccc(OCC(=O)O/N=C(\N)c2ccncc2)c1, the Potency was inconclusive [inhibitor, full curve, poor fit]. COc1ccc(NC(=O)c2sc(NC(=O)COc3ccccc3)nc2C)cc1 was tested, and the Potency was inconclusive [inhibitor, partial curve, poor fit]. For Cc1cc(C)c(NC(=O)Cn2c(=O)n(CCC(=O)NCc3ccccc3Cl)c(=O)c3sccc32)c(C)c1, the Potency was “inactive”. For Cc1ccc(CNC(=O)C2CC3Cn4c(nc5cc6ccccc6cc54)C3N2C)o1 (stereo unspecified), the Potency was “inactive”. O=C1CCc2cc(S(=O)(=O)N3CCC(C(=O)NC4CCCCCCC4)CC3)ccc2N1 was tested, and the Potency was inconclusive [inhibitor, single point]. Cc1cc(C)c(NC(=O)CNC(=O)Cc2sc(C)nc2-c2ccc(F)cc2)c(C)c1 was tested, and the Potency was “inactive”. With CN1C(=O)/C(=C/c2ccccc2Cl)Sc2ccc(C(=O)NCc3cccnc3)cc21 the Potency was “inactive”. With O=C(CC1C(=O)NCCN1Cc1ccccc1C(F)(F)F)NCCN1CCCCC1=O (stereo unspecified) the Potency was “inactive”. CCN(C(=O)c1ccccc1)c1ccc([N+](=O)[O-])cc1 was tested, and the Potency was inconclusive [inhibitor, partial curve]. For COc1ccc(-c2nc3ccc([N+](=O)[O-])cc3o2)cc1, the Potency was inconclusive [inhibitor, full curve, poor fit]. CSc1cccc(NC(=S)N(CCCN2CCCC2)Cc2cccs2)c1 was tested, and the Potency was inconclusive [inhibitor, single point]. COc1ccc2sc(-c3ccc(N(C)C)cc3)c(C#CCCO)c2c1 was tested, and the Potency was “inactive”. CCCCNC(=O)[C@H](Cc1c[nH]c2ccccc12)NC(=O)c1ccccc1Cl was tested, and the Potency was inconclusive [inhibitor, full curve, poor fit]. For COc1cccc(C(=O)NCCS(=O)(=O)N(C)Cc2ccccc2)c1, the Potency was inconclusive [inhibitor, full curve, poor fit]. COc1ccc(C2=C(Nc3ccccc3)c3ccccc3C2=O)cc1 was tested, and the Potency was inconclusive [inhibitor, partial curve, poor fit]. For CCCCOC(=O)c1ccc(NC(=S)NC(=O)c2ccco2)cc1, the Potency was “inactive”. COc1ccc(/C=N/Nc2nc(Nc3ccccc3)nc(N3CCCCC3)n2)cc1OC was tested, and the Potency was “inactive”. COCCNC(=O)CS(=O)Cc1nc(-c2ccc(Cl)cc2)oc1C (stereo unspecified) was tested, and the Potency was “inactive”. In the case of CCCCCn1c(=O)c(C(=O)Nc2ccccc2S(N)(=O)=O)c(O)c2ccccc21, the Potency is reported as “inactive”. With COc1cc(C(=O)N/N=C/c2sc(=O)n(-c3ccccc3)c2Cl)cc(OC)c1OC the Potency was inconclusive [inhibitor, single point]. With COc1ccc(N(CC(=O)NC2CCCCC2)C(=O)CNC(=O)c2ccco2)cc1OC the Potency was inconclusive [inhibitor, full curve, poor fit]. COCCCNC(=O)c1cn(C)c(=O)c2c1c1ccccc1n2C was tested, and the Potency was inconclusive [inhibitor, full curve, poor fit]. For CC(C)(C)c1ccc(OCC(=O)NCC2(N3CCOCC3)CCCCC2)cc1, the Potency was “inactive”. For Cc1ccc(Cn2ccc(NC(=O)CCSc3nc(-c4ccco4)cc(C(F)(F)F)n3)n2)cc1, the Potency was “inactive”. For COc1cnc(-c2ccccc2)nc1Oc1ccccc1C, the Potency was “inactive”. For COc1cc(CN2CCN(Cc3ccc([N+](=O)[O-])cc3)CC2)c([N+](=O)[O-])cc1OC, the Potency was inconclusive [inhibitor, full curve, poor fit]. In the case of O=C(O)C1CCCCC1C(=O)Nc1cccc2ccccc12 (stereo unspecified), the Potency is reported as inconclusive [inhibitor, full curve]. In the case of CC1CCN(C(=O)CSc2nc(N)c3c4c(sc3n2)CN(C)CC4)CC1, the Potency is reported as inconclusive [inhibitor, full curve, poor fit]. CCNC(=O)C1CCCN1C(=O)C(CCCN=C(N)N)NC(=O)C(CC(C)C)NC(=O)C(Cc1cn(Cc2ccccc2)cn1)NC(=O)C(Cc1ccc(O)cc1)NC(=O)C(CO)NC(=O)C(Cc1c[nH]c2ccccc12)NC(=O)C(Cc1cnc[nH]1)NC(=O)C1CCC(=O)N1 (stereo unspecified) was tested, and the Potency was inconclusive [inhibitor, full curve, poor fit]. In the case of CCC1CCCCN1C(=O)CSc1nc(N)c(NC(=O)c2ccco2)c(=O)[nH]1 (stereo unspecified), the Potency is reported as inconclusive [inhibitor, full curve, poor fit]. With CC(C)(C)c1ccc(/C=C2\SC(=O)N(CCNC(=O)c3cccc(S(=O)(=O)N4CCOCC4)c3)C2=O)cc1 the Potency was inconclusive [inhibitor, full curve]. With O=C1CC(N2CCC(O)(c3ccc(Br)cc3)CC2)C(=O)N1c1ccc(Cl)cc1 (stereo unspecified) the Potency was inconclusive [inhibitor, partial curve]. In the case of CSc1cccc(NC(=S)N2CCC(N(C)C(C)C)CC2)c1, the Potency is reported as “inactive”. COc1ccccc1NC(=O)Nc1cc(NC(=O)Nc2ccccc2OC)c(C)nc1C was tested, and the Potency was inconclusive [inhibitor, partial curve]. CC(C)N(C(=O)COC(=O)c1ccc([N+](=O)[O-])cc1)c1ccccc1 was tested, and the Potency was inconclusive [inhibitor, full curve, poor fit]. In the case of CCC(CC)C(=O)Nc1nnc(S(=O)(=O)N2CCCC2)s1, the Potency is reported as inconclusive [inhibitor, full curve, poor fit]. In the case of COc1ccc(C2(NC(C)=O)CCN(C(=O)CCC(=O)O)CC2)cc1, the Potency is reported as inconclusive [inhibitor, single point]. With O=C(CCn1cnc2ccccc21)N/N=C/c1ccc(O)cc1 the Potency was inconclusive [inhibitor, full curve, poor fit]. For O=C(Nc1cccc(Cl)c1)N1CCc2ccccc2C1, the Potency was inconclusive [inhibitor, full curve]. With CN(C)C(=O)c1cc2cc(Br)ccc2s1 the Potency was inconclusive [inhibitor, single point]. With C=CCOc1ccc2nnc(C)n2n1 the Potency was inconclusive [inhibitor, single point]. With Cc1ccc(NC(=O)Nc2ccccc2CC[N+](=O)[O-])cc1 the Potency was “inactive”. O=C(NNc1nc2ccc(F)cc2s1)c1cccc(F)c1 was tested, and the Potency was “inactive”. For COc1ccc(-c2cn(Cc3ccc(C(N)=O)cc3)c(-c3ccc(Cl)nc3)n2)cc1, the Potency was inconclusive [inhibitor, single point]. In the case of Cc1[nH]c2ccccc2c1C(=O)CSc1ccccc1, the Potency is reported as inconclusive [inhibitor, partial curve]. With CN(C(=O)COC(=O)/C=C/c1ccc2ccccc2n1)C1CCS(=O)(=O)C1 (stereo unspecified) the Potency was inconclusive [inhibitor, full curve, poor fit]. With CC(C)C(=O)Nc1cccc(NC(=O)c2cc3ccccc3o2)c1 the Potency was inconclusive [inhibitor, full curve]. With O=C(N/N=C/c1c(O)n(Cc2ccccc2)c(=O)[nH]c1=O)c1ccccc1O the Potency was “inactive”. CC(=O)c1c(C)[nH]c(C(=O)OCn2nnc3ccccc3c2=O)c1C was tested, and the Potency was inconclusive [inhibitor, full curve]. For Cn1c(NCCN2CCOCC2)nc2c1c(=O)n(Cc1cccc(Cl)c1)c(=O)n2C, the Potency was inconclusive [inhibitor, full curve, poor fit]. In the case of CCCc1cc(=O)oc2c(C)c(OCC(=O)NC3CCN(Cc4ccccc4)CC3)ccc12, the Potency is reported as “inactive”. In the case of CCc1ccc(OCC(=O)NC(=S)Nc2ccc(F)cc2)c(Br)c1, the Potency is reported as inconclusive [inhibitor, partial curve, poor fit]. For Cc1nc(SCC(=O)NCC2CCCO2)c2oc3ccccc3c2n1 (stereo unspecified), the Potency was inconclusive [inhibitor, full curve, poor fit]. With O=C1Nc2ccccc2N=C(c2ccccc2)C1N1CCOCC1 (stereo unspecified) the Potency was “inactive”. For Clc1nc(-c2ccccc2)c2ccccc2n1, the Potency was “inactive”. COc1ccc(CC(=O)Nc2cccc(SC)c2)cc1OC was tested, and the Potency was inconclusive [inhibitor, partial curve]. In the case of CCCn1nnnc1NCc1c(Cl)cccc1Cl, the Potency is reported as inconclusive [inhibitor, full curve, poor fit]. CC(=O)Nc1cccc(C(=O)OC2CCOC2=O)c1 (stereo unspecified) was tested, and the Potency was inconclusive [inhibitor, partial curve, poor fit]. With O=S(=O)(Nc1ccc(-c2nc3ccccc3o2)cc1)c1ccccc1 the Potency was inconclusive [inhibitor, full curve, poor fit]. With O=C(C1=C[C@H](c2csc3ccccc23)C[C@H](OCc2ccc(CO)cc2)O1)N1CCN(Cc2ccc3c(c2)OCO3)CC1 the Potency was “inactive”.
Further: nearly all actives have a fitted effect of over 25% in size.
Potency means the concentration at half of the fitted maximal effect; tags describe the fitted curve by direction and shape.
